# According to the supplement of paper PMC11417369:
# ± gives the standard deviation of the averaged measurements. The list shows a part of the results.
# System: PfAP2-LT AP2 domain (GST-tagged)
# Assay: gcPBM binding intensity (ln(normalized median fluorescence intensity)); higher = stronger DNA binding
# Method in brief: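 The highest Masliner-normalised natural-log median intensity across replicate spots of either probe orientation is reported as binding intensity. GST-tagged P. falciparum DNA-binding domains expressed in E. coli were applied for 1 h to an Agilent 4 × 180k array of primer-extended double-stranded 36-bp intergenic genomic probes plus negative controls, and bound protein was detected with Alexa488 anti-GST antibody and scanned at 488 nm.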
row,Sequence,gcPBM binding intensity (ln)
1,AAATTAATATATAAAAGTACCCATATATTTAATATA [XGTACX_site3551],8.52 ± 0.43
2,TTTTTTTTTTGTTGAGTGCAATTATTTGTAAGAAAA,8.13 ± 0.34
3,TATAACAAAATATTCACACATATAAGTAAATAAAGG [CACACA_site5777],8.92 ± 0.54
4,TCTCCACCTCTCTTGGTGCGTTATACCCTCGAGGCT,9.05 ± 0.61
5,AGTTTGTTTTTTTTTTTTTTTTCCTGTCACAAACAA [CACACA_negctrl_site1093],8.78 ± 0.47
6,GTACGTTACATAAATGTGCACATATTATATGCGAAG,9.09 ± 0.35
7,GTCATATATATATGTACACACATATATATATTTATA [CACACA_site1459],8.96 ± 0.35
8,TCAAAGCACCCATACACACACATATATATATATATA [CACACA_site4317],10.2 ± 0.18
9,TGAGTTACATACTAATGTACACAACAAAAAAAAAAA [XGTACX_site2390],8.73 ± 0.49
10,TTTTTTTGAACATATACACACTCTAAACTTATACAT [CACACA_site3917],8.79 ± 0.56
11,AAAGGTTTATATGATACACACATAAGTGATCAGGTT [CACACA_site190],9 ± 0.4
12,AAAAACTAATCTTTAACATGCAACCGTTTATACATA [TGCATGCA_site363],8.55 ± 0.43
13,AAAAATTATGGACACACACACATATATATATATATT [CACACA_site4717],9.8 ± 0.11
14,AATAAAATAAAATACACACATACATACATACAAATG [CACACA_site2438],9.52 ± 0.35
15,GGTATACGCAAGTATACACACATATATATATATATA [CACACA_site3240],10.01 ± 0.042
16,TAATTTATGACACGCGCACACATATATATATAGTAA [CACACA_site4249],9.2 ± 0.28
17,ATATATATATTTGTATGTACATATATATATTCGTAT [XGTACX_site1640],9.06 ± 0.38
18,ACCCATAAAAAGGATACACACACACCCACCCATATA [CACACA_site8205],10.3 ± 0.29
19,TTTCCTTATTAAAACACACAAATACATTATTTAATC [CACACA_site7080],8.6 ± 0.52
20,ACTGTAAAAGGATTTACACACATATTTACATTTACA [CACACA_site519],9.06 ± 0.35
21,ATGCATATAACTACGTGTACAAATATACACAAATAC [XGTACX_site8811],9.18 ± 0.42
22,TACCAATGCATAACGGTGCAAAAAAATAAGGAATAA,8.91 ± 0.61
23,TAAAACAACAAAGAAAATGAAAAAGTAAAAACATAT [CACACA_negctrl_site1049],8.9 ± 0.55

row,Sequence,gcPBM binding intensity (ln)
1,ATTTCATAAATTAAACGTACATAATACACACACATG [XGTACX_site4155],9.49 ± 0.33
2,GTACGATAAAAAATTGGACAAAAAAAAAAAAAAAAT [XGTACX_negctrl_site158],8.79 ± 0.53
3,TTTTGTTATTTTTTAGTGCATATAAAGGTTGTTAAG,8.45 ± 0.4
4,TTTTGCAATAATGTTGCACACTAAATAGTCATCTAT [CACACA_site4304],8.91 ± 0.32
5,ACATTTTTTTCATATCGTACATATTATAATATTTTC [XGTACX_site6524],8.94 ± 0.4
6,ACAAGTCAGGCAAAAACATGCATTATTTGAACATTA [TGCATGCA_site864],8.9 ± 0.46
7,AAAAAAAAAAAAGGAGGTACACAATTTTATATATGC [XGTACX_site5296],8.66 ± 0.49
8,GAGCATTACCCATATACACACATATATATAAACCTA [CACACA_site2737],9.18 ± 0.37
9,CTATCATATTTATGCACACAAAAATAATTAATTCGT [CACACA_site2614],8.96 ± 0.36
10,TATTTTGAGAATAAATGTACGAATTTTATATTTAAA [XGTACX_site1336],8.07 ± 0.42
11,ACCTGTTCATATGATCGTACACGTCAGTTTATATGA [XGTACX_site3869],9.15 ± 0.37
12,ATATAATTATTGATATGTACATATTTGTTCTAGTTT [XGTACX_site3012],9.01 ± 0.45
13,ATTCAAATATTAAAAAGTACAAAAAAAAAACAAAAA [XGTACX_site1174],8.63 ± 0.5
14,ACATTAAAATATGATTGTACATTTTATTATATTATA [XGTACX_site912],8.68 ± 0.41
15,ACAACACTATATTACACATGCATTAAGAGAGTGAAC [TGCATGCA_site124],9.12 ± 0.36
16,ATAATTATTTTAGAAACACACAAATTAGAAAAAACA [CACACA_site3636],8.67 ± 0.55
17,TAAAATAAAAATTAAAGTACATATGTATATATATAT [XGTACX_site3984],9.11 ± 0.35
18,AATCCTTACGGACACACACACACGAATAAATAAAAA [CACACA_site4422],9.68 ± 0.43
19,GAGTATTCAAGTATTAGTACATATTATATAATAAAT [XGTACX_site7630],8.72 ± 0.49
20,TACAAAATGGGGAACACACACATATATAAATAAATA [CACACA_site7751],9.6 ± 0.63
21,TTTTTTTCTAATTATGCACACATATCAAAATATTCA [CACACA_site8886],8.84 ± 0.38
22,ATATTTATTATATAATGTACAAAAAAAAAAAAAAAA [XGTACX_site629],8.44 ± 0.32
23,AATAAATAGATATATACACACATATATCTATAATAT [CACACA_site6557],9.02 ± 0.3

row,Sequence,gcPBM binding intensity (ln)
1,AAATATAAAAGTATATGTACATATATATATATATAT [XGTACX_site7446],9.85 ± 0.3
2,TATATAATGGTAAAAACACACAAATATGAAGATGTT [CACACA_site722],9.05 ± 0.4
3,CGTGTGTCCCCCTTAATCATCCAATCGTTCATTTTG [CACACA_negctrl_site1008],9.09 ± 0.28
4,AGAGGATCATAGTTATGTACACATATTTAACATAAA [XGTACX_site7232],8.71 ± 0.45
5,GACAATAAAAAGAAAAGTACATATATAAATTAACCA [XGTACX_site7858],8.83 ± 0.48
6,TCTTCATTTTTATGTGCATGTAAAATTTTTTTTTTT [TGCATGCA_site963],8.71 ± 0.49
7,TTTTTATAAAAATTATTAAAAAAATTATTTATAGCT [CACACA_negctrl_site265],8.07 ± 0.45
8,TTTTTTTTCAATCTCTATATATTAAGGTTTATATTT [XGTACX_negctrl_site397],8.46 ± 0.49
9,TAGCGCATAAAAAAAAAAAAATATATACTAATAAAT [GTGCAC_negctrl_site276],8.54 ± 0.54
10,AAATATATTATTATCTTATCAATTAAAAGAATAAAC [CACACA_negctrl_site779],8.38 ± 0.43
11,TTACTTAAATATAAGTGTCCTCAAAAAAAAAAAAAA [XGTACX_site460],8.2 ± 0.45
12,AATATAAGTTTATTAGTGCACAGATAAATATATATT [GTGCAC_site9784],8.86 ± 0.42
13,ATGTATGTTTTTTTTTTATTGTTCAAAAAGTTGAAG [CACACA_negctrl_site1276],8.52 ± 0.37
14,ATTTTTTATATTAATTGTACATTGTATATATATATA [XGTACX_site8702],8.8 ± 0.35
15,TTATATATATGTGTATGTACATATATATATATATAT [XGTACX_site1141],9.52 ± 0.22
16,AAAAGAATAATAATTTATGTATATTAATTAAAGAAT [XGTACX_negctrl_site402],8.52 ± 0.53
17,TATCATATATTATATGCACACATGTTTTTCAAGAAT [CACACA_site1892],8.95 ± 0.31
18,TATATAATATTCTACACACCAACAACAAACATATAT [CACACA_site567],9.26 ± 0.33
19,ATATTCTGATTTTAGATGCACTTCGTTAACAAAATA [GTGCAC_site9958],8.49 ± 0.35
20,ATATATATATTTATATGTACATAATATAAAATTTCT [XGTACX_site3720],8.62 ± 0.45
21,AATGAATATATATAAATATATATATATATATATATA [CACACA_negctrl_site1494],9.39 ± 0.17
22,ATAAATCTACACCGCACACAAAAACAACAAATATTA [CACACA_site5396],9.34 ± 0.4
23,ATGTTATTACATAATTGTACATTTTGAGCAATTAAG [XGTACX_site4640],8.52 ± 0.35

row,Sequence,gcPBM binding intensity (ln)
1,ATATTTGTATAAATTGCACACTTTATTTTTTTTAAG [CACACA_site1558],8.79 ± 0.48
2,AAACGTAACATATATATATATATATATAAGATATAT [CACACA_negctrl_site126],9.63 ± 0.2
3,TTAGCTTTTTTTTAAACATGCAACTACTTGATCCAC [TGCATGCA_site1017],8.6 ± 0.55
4,TTTTTTTTTTTTTCTTCACACACAGTACTACTATTT [CACACA_site8759],9.13 ± 0.5
5,GGTATATGCATAAAGAGTACGTAACTTCTTTTTGTT [XGTACX_site6344],8.91 ± 0.44
6,ATAAGATGATTAATTACACACTTTATAGGATATTTA [CACACA_site1711],8.61 ± 0.38
7,AAATGTGTAAATATAATTAGTTTCACAAAACAAATA [GTGCAC_negctrl_site543],8.73 ± 0.51
8,TATTTATTATTATGTACACACTATATTAAAACATAA [CACACA_site4549],8.56 ± 0.42
9,TATGTGAATCCTAAGTGTACACATCTTACATATATA [XGTACX_site2506],9.01 ± 0.38
10,AGTATACGCAGACACACACACACATATATATATATA [CACACA_site1735],10.22 ± 0.042
11,TTATATTTATAAAGGTGTACCTTAAAATGATTTTAC [XGTACX_site3774],8.32 ± 0.47
12,AAAATTAAATAAAAATGTACAGAAATATTATATGAA [XGTACX_site5695],8.69 ± 0.55
13,ATATATTATATTAATTGTACATAAAAAAGAGAAAAA [XGTACX_site3366],8.6 ± 0.35
14,AGAAAAATTACAAAATGTACATAATGTGTTATTAAT [XGTACX_site7877],8.82 ± 0.52
15,ATGTATAAACAAAAGGGTACATATATATATATATAT [XGTACX_site2087],9.88 ± 0.18
16,AATATATAAATCAATAGTACATATATATATATATAT [XGTACX_site3898],9.535 ± 0.078
17,AATAAAAAACATGAAAGTACTTTAAAAAAGGTAATA [XGTACX_site1897],8.97 ± 0.64
18,ATTAAGTACTAAAAAGTGCAGTTCGGTACTGTGCTT [GTGCAC_site9755],8.85 ± 0.39
19,ATTAAATATGAGGGAACACACACATGATATATAAAT [CACACA_site8755],9.41 ± 0.41
20,TTATATAAAGAATGTACACACAGAAATGCACCCACA [CACACA_site2282],9.39 ± 0.2
